# Results taken from PubChem BioAssay AID651582 (Sanford-Burnham Center for Chemical Genomics, 2012).
# Some of the results follow. Further columns of the screen follow, without active or inactive calls. Most of these compounds were active or inconclusive in the main read-out, so they are no random draw.
# Assay: TAG lipid buildup reduction in H9c2 cells – cell-based, uHTS, fluorescence, primary screen (AID 651582)
# Details: Nile Red lipid (TAG) fluorescence, measured here:, at 12.5 µM, cells loaded with 200 µM oleic acid
row,SMILES,"DAPI nuclei signal change (viability), lower = more cytotoxic [%]"
1,CCN1CCN(Cc2ccc(NC(=O)c3cc(NC(=O)c4cc5cccc(OC)c5o4)cc(OC)c3)cc2C(F)(F)F)CC1,19.8
2,Cn1nnc2c[n+](CC(=O)c3ccc(Cl)cc3)cc(Br)c21,-28.6
3,CC(C)NS(=O)(=O)c1ccc(CCC(=O)Nc2cc(Cl)ccc2Oc2ccccc2)cc1,-9.84
4,CCN(CC)CCOC(=O)c1ccc(N/C=C(/C#N)c2nc(-c3ccc(OC)c(OC)c3)cs2)cc1,18.1
5,COc1ccc(COc2cc(-c3cccc(OC)c3)nc3ccc(NC(=O)c4ccc(OC)cc4)cc23)cc1,-20
6,Cc1nn(-c2cccc(Cl)c2)c2nc(-c3ccncc3)cc(C(=O)N3CCOCC3)c12,-4.57
7,CCCCN(C)C(=O)c1ccc(Nc2nc(C(N)Cc3ccc(C(F)(F)F)cc3)cs2)nc1 (stereo unspecified),-1.18
8,COc1ccc(CC(N)c2csc(NC(=O)Nc3ccccc3C(C)C)n2)cc1 (stereo unspecified),-23.6
9,Cc1cc(C)c(NC(=O)CSc2nc3ccc(NC(=O)CSc4nnnn4Cc4ccccc4)cc3s2)c(C)c1,6.33
10,O=C(Nc1ccc(-c2csc(Nc3ccc(Cl)cc3)n2)cc1)c1cc([N+](=O)[O-])cc(C(F)(F)F)c1,7.77
11,COc1ccc(CCNc2c3ccccc3nc3ccccc23)cc1OC,-31.9
12,O=C(N/N=C(\c1ccccc1)c1ccccn1)c1cccc([N+](=O)[O-])c1,-27.3
13,COc1ccc(OC)c(NS(=O)(=O)c2ccc(N3CCCC3=O)cc2)c1,-5.5
14,CCOC(=O)CCS(=O)(=O)c1nc(-c2ccccc2)cc(C(F)(F)F)n1,-43.9
15,Cc1cc(C)c2nc(NC(=O)c3ccc([N+](=O)[O-])o3)sc2c1,-30.9
16,O=C1C(Cl)=C(NCc2ccco2)C(=O)c2ccccc21,-47.2
17,O=C(NCc1nnnn1-c1ccc(F)cc1)c1ccc([N+](=O)[O-])o1,-49.1
18,COc1ccc(-c2cc(NC=O)c3ncc(-c4ccc(OC)c(OC)c4)n3c2)cc1,-44.7
19,C=C1C(=O)C23C(O)C1CCC2C12CCCC(C)(COC(C)=O)C1C(O)C3(O)OC2 (stereo unspecified),-44.1

row,SMILES,"DAPI nuclei signal change (viability), lower = more cytotoxic [%]"
1,CC(C)(C)NC(=O)C(c1ccc(-c2ccccc2)cc1)N(C[C@H]1CC[C@@H]([C@@H]2CC[C@H](CO)O2)O1)C(=O)c1ccc2ccccc2c1 (stereo partly specified),-0.194
2,CC(C)CCNCC(O)CON=C1c2ccccc2-c2ccccc21 (stereo unspecified),-17.4
3,C[C@@H]1CN([C@@H](C)CO)C(=O)c2cccc(NC(=O)Nc3ccc(F)cc3)c2O[C@@H]1CN(C)Cc1ccc(Oc2ccccc2)cc1,9.25
4,CCOC(=O)Oc1c(OC)cc(C(=O)O[C@@H]2C[C@@H]3CN4CCc5c([nH]c6cc(OC)ccc56)[C@H]4C[C@@H]3[C@H](C(=O)OC)[C@H]2OC)cc1OC,-3.72
5,Nc1nc(CCl)nc(Nc2cccc3ccccc23)n1,-46.9
6,COc1cccc(-c2sc3cc(OC)c(OC)cc3c2-c2ccc(OCCN3CCCCC3)cc2)c1,-34.4
7,O=C(N1CCN(c2ccccn2)CC1)N1c2ccccc2Sc2ccccc21,-24.2
8,Cc1nc2c(ccc3nc(NC(=O)Cc4cccc5ccccc45)sc32)s1,-2.46
9,COC(=O)[C@]1(Cc2ccccc2)N[C@H](c2ccc(-c3cccc(Cl)c3)c(OC)c2)[C@@H]2C(=O)N(C)C(=O)[C@@H]21,-18.5
10,O=C(Nc1nc2ccc(C(=O)N3CCCCC3)cc2s1)C1CCCCC1,-26.2
11,O=C(Nc1nc(-c2ccccn2)cs1)c1ccc(Cl)s1,-16.1
12,Cc1ccc(-c2csc(NC(=O)CSc3nc4ccccc4c(=O)n3CCCN(C)C)n2)cc1,20.2
13,CC(=O)Nc1sc2c(c1-c1nc3ccccc3s1)CN(C(C)C)CC2,-22.1
14,O=C1C(=O)N(CNc2ccccn2)c2ccccc21,-26.7
15,O=C1OCCN1C(=O)[C@H]1[C@H](c2ccc(Cl)cc2)C(c2ccc(F)cc2)=NN1c1ccc(Br)cc1,-14
16,COC(=O)c1cc(C(=O)N2CCN(c3cccc(Cl)c3)CC2)cc([N+](=O)[O-])c1,-40.9
17,Cc1nc(N/N=C/c2cccc(F)c2)cc(N2CCOCC2)n1,-41.9
18,NC(=S)NN=Cc1nccc2c(C(F)(F)C(F)(F)C(F)(F)F)cccc12,-32.4
19,N#CC1C=Cc2c(ccc3ccccc23)N1C(=O)c1ccccc1 (stereo unspecified),-34.4

row,SMILES,"DAPI nuclei signal change (viability), lower = more cytotoxic [%]"
1,CCCC(C(=O)NC(C)(C)C)N(Cc1ccccc1)C(=O)c1snc(C(N)=O)c1N (stereo unspecified),-37.8
2,COc1cc(C(=O)NC2CCN(C)CC2)ccc1Nc1ncc2c(n1)N(Cc1ccccc1)CCC(=O)N2C,-22.3
3,O=C(Nc1ccc2[nH]c(=O)[nH]c2c1)c1ccc([N+](=O)[O-])o1,-44.6
4,COc1ccc(C#Cc2ccc3c(c2)O[C@@H](CN(C)C(=O)Nc2cccc(OC)c2)[C@H](C)CN([C@@H](C)CO)S3(=O)=O)cc1,-16.3
5,O=C1c2ccc3c4c(ccc(c24)C(=O)N1CCCCO)C(=O)N(CCCCO)C3=O,-25
6,Cc1onc(-c2ccc(Cl)cc2Cl)c1-c1csc(N/N=C/c2ccccc2Cl)n1,4.16
7,COc1ccc(-c2nc(NC(=O)C3CCN(c4nc5ccccc5o4)CC3)sc2C)cc1,-1.43
8,COc1ccc(-n2nc(C(=O)Nc3ccc4c(c3)OCO4)c3c4ccccc4n(C)c3c2=O)cc1,8.77
9,O=C(NCCC1=CCCCC1)C1CCN(C(=O)Nc2ccccc2)CC1,-5.06
10,COc1cc(C#Cc2c(-c3cncn3C)n(C)c3ccc(-c4cnc(N5CCOCC5)nc4)cc23)cc(OC)c1,92.7
11,CC(C)(C)OC(=O)N(CCc1ccccc1)Cc1ccc(OCc2cccc(NC(=O)/C=C/c3ccccc3)c2)cc1,8.59
12,O=C(Nc1cccc(Cl)c1)c1nc[nH]c1C(=O)NCCCCNC(=O)c1[nH]cnc1C(=O)Nc1cccc(Cl)c1,1.76
13,CCC(=NCCc1c(C)[nH]c2ccc(OC(F)(F)F)cc12)C1=C(O)CC(c2ccccc2)CC1=O (stereo unspecified),-32.3
14,COc1ccccc1Nc1nnc(SCC(=O)Nc2nc(-c3ccc(F)cc3)cs2)s1,-1.08
15,COc1ccc(-c2ccc3[nH]c4c(c3c2)CCN2C(=O)[C@@H]([C@H](C)O)[C@@H](N(C)C(=O)Nc3cc(Cl)cc(Cl)c3)C[C@@H]42)cc1,-14.3
16,CCC(=O)Nc1ccc(-c2nnc(-c3ccccc3)o2)cc1,-1.45
17,COC(=O)Nc1nc2ccc(SC(C)C)cc2[nH]1,-31.1
18,C[C@@H]1CN([C@H](C)CO)C(=O)c2cccc(NC(=O)Nc3ccc(C(F)(F)F)cc3)c2O[C@H]1CN(C)S(=O)(=O)c1cccs1,-10.1
